Here are results for 100 molecules from paper PMC6919601, “Identification of Plasmodium dipeptidyl aminopeptidase allosteric inhibitors by high throughput screening” (PLoS ONE, 2019).

Each structure is given as a SMILES string. About 230 (0.21%) of roughly 110,000 compounds showed an effect of 50% or more. This is one part of the list.
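Further: 30 min substrate incubation versus DMSO and 10 µM JCP410 controls.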

DPAP1, sequence (Q8IIJ9 whole entry, looked up): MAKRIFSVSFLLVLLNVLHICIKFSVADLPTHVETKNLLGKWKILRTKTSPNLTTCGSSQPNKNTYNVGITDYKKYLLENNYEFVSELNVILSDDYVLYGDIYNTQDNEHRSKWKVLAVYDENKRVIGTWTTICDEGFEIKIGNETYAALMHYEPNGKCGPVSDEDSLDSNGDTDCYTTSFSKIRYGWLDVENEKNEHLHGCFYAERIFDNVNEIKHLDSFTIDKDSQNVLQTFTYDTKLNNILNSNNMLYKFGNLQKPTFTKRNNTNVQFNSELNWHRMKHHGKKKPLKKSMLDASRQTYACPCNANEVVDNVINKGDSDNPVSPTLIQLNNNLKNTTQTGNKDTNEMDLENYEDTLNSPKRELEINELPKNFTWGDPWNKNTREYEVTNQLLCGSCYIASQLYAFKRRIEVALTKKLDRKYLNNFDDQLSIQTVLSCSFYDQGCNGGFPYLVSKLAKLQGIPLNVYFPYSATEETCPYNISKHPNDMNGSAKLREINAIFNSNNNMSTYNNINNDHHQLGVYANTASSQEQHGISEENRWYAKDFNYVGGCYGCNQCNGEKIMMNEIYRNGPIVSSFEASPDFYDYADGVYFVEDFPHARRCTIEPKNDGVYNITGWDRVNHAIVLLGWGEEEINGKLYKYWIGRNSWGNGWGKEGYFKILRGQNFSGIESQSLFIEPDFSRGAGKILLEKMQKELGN

This assay addresses DPAP1 (Plasmodium falciparum, UniProt Q8IIJ9). The assay is described as follows: primary screen, percent inhibition; read by cleavage of a fluorogenic dipeptide substrate; higher = more effect of the substance. Details: species or system P. falciparum D10 trophozoite lysates; single well.
With `Cc1cccc(C)c1N1CCN(S(=O)(=O)N(C)C)CC1`, the “% Inhibition @ 10 uM” value is listed as 5.03%.
For the molecule `Cc1cc(O)c2c(c1)OC(C)(C)C1=C2CC(C)CC1` (stereo not shown), the “% Inhibition @ 10 uM” value turned out to be 1.7%.
Then `CCCNC(=O)C1CCCN(c2nn3c(=O)cc(C)nc3s2)C1` (stereo not shown), with 4.55%.
Consider `O=C(COCc1cc(-c2ccc3c(c2)OCO3)on1)N1CCOCC1`, for which the “% Inhibition @ 10 uM” value came to 2.37%.
The value for `COc1cc(C)c(S(=O)(=O)NCCOc2ccccc2)cc1C(C)C` was 2.77%; that for `C/C(Cl)=C/Cn1c(=O)c2c(nc(N3CCCCC3)n2C)n(C)c1=O` was -0.988%.
Consider `CC(Sc1nc(-c2ccccc2)cc(C(F)(F)F)n1)C(=O)N1CCCC1` (stereo not shown), for which the “% Inhibition @ 10 uM” value is given as -0.958%.
On to `CC1SC2(OC1=O)C1CC3CC(C1)CC2C3` (stereo not shown), for which the “% Inhibition @ 10 uM” value amounted to 1.67%.
With `C=CCN(C#N)c1nc(NC(C)C)nc(NC(C)C)n1`, the “% Inhibition @ 10 uM” value worked out at 5.55%.
Take `CCc1c(C)c2ccc(OC)c(C)c2oc1=O`: the “% Inhibition @ 10 uM” value was -0.597%.
For the molecule `Cc1ccccc1Cn1c(C2CCCO2)nc2ccccc21` (stereo not shown), the “% Inhibition @ 10 uM” value is reported as 5.29%.
As for `CCC(NC(=O)[C@H](CC1CCCCC1)/N=C(\NS(C)(=O)=O)N1CCCC1)C(=O)c1nc2ccccc2o1` (stereo partly shown), the “% Inhibition @ 10 uM” value is -6.56%.
The value for `CC(C)(C)NS(=O)(=O)c1ccc2c(c1)C(=O)c1ccccc1C2=O` was -0.128%; that for `CCN1CCN(c2oc(/C=C/c3cccc(OC)c3)nc2C#N)CC1` was 0.895%.
Then `CCCCN1C(=O)C2Cc3c([nH]c4ccccc34)C(c3cc(Br)ccc3O)N2C1=O` (stereo not shown), with 8.01%; and `COc1ccccc1NC(=O)NCC1(C)CC(NC(=O)Nc2ccccc2OC)CC(C)(C)C1` (stereo not shown), with 1.43%.
For the molecule `Cc1ccc(SCCNC(=O)CN(c2cc(Cl)cc(Cl)c2)S(C)(=O)=O)cc1`, the “% Inhibition @ 10 uM” value is -2.22%.
For the molecule `CCn1cc(/C=C(\NC(=O)c2ccco2)C(=O)NC(C)C)c2ccccc21`, the “% Inhibition @ 10 uM” value was determined as 1.64%.
The value for `N#CCNC(=O)[C@H](CS(=O)(=O)Cc1ccccc1)/N=C/NS(=O)(=O)c1ccccc1` was 0.079%.
As to `COc1cc(/C=C2\SC(=O)N(CC(=O)N3CCOCC3)C2=O)ccc1O`, the “% Inhibition @ 10 uM” value is 1.15%.
On to `CN1CC=C(c2noc(CCC(=O)Nc3cccnc3Cl)n2)CC1`, for which the “% Inhibition @ 10 uM” value is -1.06%.
With `Cc1cccc(NC(=O)COc2ccc(S(=O)(=O)NC(C)C)cc2)c1`, the “% Inhibition @ 10 uM” value amounted to 1.39%.
Then `OC1=C2C(=Nc3nn(-c4ccccc4)c(O)c3C2c2ccc3c(c2)OCO3)CCC1` (stereo not shown), with 2.1%; and `CN(C(=O)c1cccs1)c1ccccc1C(=O)O`, with -8.28%; and `O=C1OC(/C=C/c2cccc(Cl)c2Cl)=NC/1=C\c1coc2ccccc2c1=O`, with 5.17%.
Turning to `CC(C)Nc1nc2c(S(=O)(=O)c3ccc(Cl)cc3)nnn2c2ccsc12`, the “% Inhibition @ 10 uM” value is listed as -5.26%.
As to `CC1(c2ccccc2)OC(=O)C(=Cc2c[nH]c3ccccc23)C(=O)O1` (stereo not shown), the “% Inhibition @ 10 uM” value is given as 3.16%.
Turning to `CC1(C)CC2=NC(S)=C(C#N)C(c3cccnc3)C2=C(O)C1` (stereo not shown), the “% Inhibition @ 10 uM” value worked out at 67.3%.
Take `CCOc1ccc(CNC(=O)Cn2ccc3cc(S(=O)(=O)N4CCCC4)ccc32)cc1`: the “% Inhibition @ 10 uM” value is -5.83%.
On to `COc1cc(C(=O)Nc2sc3c(c2C(=O)O)CCC(C)C3)cc(OC)c1OC` (stereo not shown), for which the “% Inhibition @ 10 uM” value came to 3.46%.
In the case of `CCC(=O)c1cn(CC(=O)O)c2ccccc12`, the “% Inhibition @ 10 uM” value was -5%.
For `O=C1C(Nc2cccc(C(F)(F)F)c2)=C(N2CCOCC2)C(=O)c2ccccc21`, the “% Inhibition @ 10 uM” value is -3.63%.
Then `COc1ccc(-n2c3c(c(=O)[nH]c2=O)C(NC(=O)c2ccccc2F)(C(F)(F)F)C(=O)N3)cc1` (stereo not shown), with 1.36%.
Then `CCOC(=O)CSc1nc(C2CC2)cc(-c2ccc(F)cc2)c1C#N`, with 5.64%; and `COc1cc(OC)cc(C(=O)N2CCN(S(=O)(=O)c3ccc(Cl)cc3)CC2)c1`, with -1.6%.
Consider `CC(C)(C)C(=O)C1=C(O)C(=O)N(Cc2ccccc2)C1c1ccccc1F` (stereo not shown), for which the “% Inhibition @ 10 uM” value is listed as -0.884%.
Take `c1ccc(-c2nc3c4ccccc4nc(N4CCN(C5CCCCC5)CC4)n3n2)cc1`: the “% Inhibition @ 10 uM” value was -2.42%.
Regarding `CCCCSc1nc2cc(C)ccc2n1C`, the “% Inhibition @ 10 uM” value is 1.84%.
Take `O=C(c1[nH]c2ccccc2c1Sc1ccc(Cl)cc1)N1CCC2(CC1)OCCO2`: the “% Inhibition @ 10 uM” value is -3.1%.
The value for `Fc1ccccc1N1CCN(CC(c2ccccc2)c2ccccc2)CC1` was -2.21%.
On to `Cc1cc(-c2ccc(C)c(S(=O)(=O)N(Cc3ccccc3)C(C)C)c2)on1`, for which the “% Inhibition @ 10 uM” value was 0.098%.
For the molecule `O=C(CCn1nc(-c2ccccc2)ccc1=O)N1CCCC1`, the “% Inhibition @ 10 uM” value is recorded as -5.43%.
Turning to `COc1cc(OC)cc(C(=O)Nc2ccc(F)cc2F)c1`, the “% Inhibition @ 10 uM” value was 1.04%.
With `COCCCNC(=O)c1ccc(CS(=O)Cc2ccc(C)cc2)o1` (stereo not shown), the “% Inhibition @ 10 uM” value is -5.43%.
In the case of `c1ccc(CN2CCC(N3CCCCCCC3)CC2)cc1`, the “% Inhibition @ 10 uM” value is on record as 0.472%.
Consider `O=C(C(Cc1ccccc1)N1C(=O)C2C3c4ccccc4C(c4ccccc43)C2C1=O)N1CCCCC1` (stereo not shown), for which the “% Inhibition @ 10 uM” value worked out at 2.38%.
For the molecule `CCCCNC(=O)C1C2C=CC(C2)C1C(=O)O` (stereo not shown), the “% Inhibition @ 10 uM” value amounted to 0.512%.
As for `COCCNC(=S)N(CCc1c(C)[nH]c2ccc(OC)cc12)Cc1ccccn1`, the “% Inhibition @ 10 uM” value is listed as -4.14%.
Consider `CCCCCCCCOc1ccc(/C=C(\C#N)c2nc(-c3ccc(C)cc3)cs2)cc1`, for which the “% Inhibition @ 10 uM” value was determined as 4.16%.
Take `CCOc1ccccc1C(=O)N1CCN(C(c2ccccc2)c2ccccc2)CC1`: the “% Inhibition @ 10 uM” value is reported as -3.35%.
On to `COc1cc(CNCCCN2CCOCC2)cc(Cl)c1OCC(=O)NC(C)(C)C`, for which the “% Inhibition @ 10 uM” value is on record as 2%.
The value for `Cc1ccc(S(=O)(=O)NC2CCCCC2)cc1[N+](=O)[O-]` was -4.35%; that for `Cc1nn(C)c(C)c1CN(C)C(=O)c1cc2n(n1)C(C(F)(F)F)CC(c1ccc3c(c1)OCO3)N2` (stereo not shown) was -6.44%; that for `CCc1ccc(NC(=O)CCC(=O)Nc2ccc(CC)cc2)cc1` was 4.11%.
For `CC(N)C12CC3CC(CC(O)(C3)C1)C2` (stereo not shown), the “% Inhibition @ 10 uM” value stood at 2.58%.
The value for `CC(C)N(CCc1ccncc1)C(=S)NCC1CCCO1` (stereo not shown) was -4.53%; that for `O=C(CS(=O)(=O)c1ccc2ccccc2c1)N1CCCC1` was 3.19%; that for `CC(C)(C)Nc1nc(Cl)nc(NCc2ccccc2)n1` was -5.23%.
For `COc1ccccc1CNC(=O)c1cccc2c1C(=O)N(C1CCCCC1)C2`, the “% Inhibition @ 10 uM” value is given as -6.62%.
With `O=C(Nc1ccc(S(=O)(=O)NC2CCCCC2)cc1)NC1CCCCC1`, the “% Inhibition @ 10 uM” value is recorded as 0.323%.
Turning to `O=C(CCc1ccc(-n2cnc3cccnc32)cc1)NC1CCCCCC1`, the “% Inhibition @ 10 uM” value is -3.47%.
`CCOc1cc(/C=C2/C(=N)N3OC(C)=CC3=NC2=O)cc(Cl)c1OCCOc1ccccc1`: the “% Inhibition @ 10 uM” value is given as -1.43%.
Regarding `O=C(C1c2ccccc2Oc2ccccc21)N1CCN(c2ncccn2)CC1`, the “% Inhibition @ 10 uM” value was -1.06%.
`Cc1cc(NC(=O)CN2CCN(CCO)CC2)nc2c1c(=O)oc1ccccc12`: the “% Inhibition @ 10 uM” value is given as 2.81%.
Then `CC(C)CNC(=O)c1ccc2c(c1)C(=O)N(Cc1ccco1)C2=O`, with -5.6%.
Then `CC1CCc2sc(NC(=O)C3CC(Cl)=CCC3C(=O)O)c(C#N)c2C1` (stereo not shown), with -4.76%; and `COc1cccc(N(CC(=O)Nc2ccc(C(C)C)cc2)S(C)(=O)=O)c1`, with 1.52%.
Then `Cc1cc(/C=C2/SC(=O)N(C(C)C)C2=O)c(C)n1-c1ccccn1`, with 0.145%.
On to `OCCN(CCO)CC(O)COc1cccc(Cl)c1` (stereo not shown), for which the “% Inhibition @ 10 uM” value stood at 2.95%.
On to `CCCn1c(=O)c2c(nc3n2CCN3Cc2ccccc2)n(C)c1=O`, for which the “% Inhibition @ 10 uM” value was 0.867%.
`CC1=CCC2C(=O)N(C3CCCCC3)C(=O)C2C1` (stereo not shown): the “% Inhibition @ 10 uM” value is listed as -2.2%.
For `Cc1ccc(CNC(=O)CNC(=S)N(Cc2ccccc2)Cc2cccs2)cc1`, the “% Inhibition @ 10 uM” value was found to be 5.99%.
On to `CCC1CCc2c(sc(N)c2C(=O)NC2CCCCC2)C1` (stereo not shown), for which the “% Inhibition @ 10 uM” value is reported as -0.116%.
In the case of `Cc1nc(-n2cccc2)sc1C(=O)NCCCc1ccccc1`, the “% Inhibition @ 10 uM” value is given as -2.37%.
For the molecule `CCOC(=O)N1CCN(Cc2ccc(Cl)cc2Cl)CC1`, the “% Inhibition @ 10 uM” value was found to be 3.24%.
Consider `CC(=O)C1=C(C)Nc2ncnn2C1c1ccc(Cl)cc1` (stereo not shown), for which the “% Inhibition @ 10 uM” value was found to be 2.68%.
Regarding `OC1(c2ccc(F)cc2)CSC2=NCCN21` (stereo not shown), the “% Inhibition @ 10 uM” value was 5.01%.
Consider `CC(C)OCCCNC(=O)c1noc2c1COc1ccccc1-2`, for which the “% Inhibition @ 10 uM” value was 58.6%.
`CCn1cc(Cl)c(C(=O)NCc2cc3ccccc3[nH]2)n1`: the “% Inhibition @ 10 uM” value was 3.79%.
Take `COC(=O)c1nc2ccccc2[nH]1`: the “% Inhibition @ 10 uM” value is 4.61%.
For `Cn1c2ccccc2[n+]2nc3c(cc12)c1cccnc1c1ncccc31`, the “% Inhibition @ 10 uM” value is on record as 5.42%.
With `CC(=O)c1c(C)nc(-c2ccccc2)nc1N`, the “% Inhibition @ 10 uM” value was -3.77%.
For `COc1ccc(C2SCC(=O)N2CCN2CCCCC2)cc1OC` (stereo not shown), the “% Inhibition @ 10 uM” value is 9.62%.
As for `COc1cccc(C2=NS(=O)(=O)N(C)C(C(=O)NC(C)c3ccccc3)=C2)c1` (stereo not shown), the “% Inhibition @ 10 uM” value was 3.92%.
The value for `COC(=O)[C@@H]1CCCN1C(=O)[C@H](CC(C)C)NC(=O)/C=C/S(=O)(=O)c1ccccc1` was 10.2%; that for `CCOc1ccc(C2c3c(-c4ccccc4O)n[nH]c3C(=O)N2Cc2ccco2)cc1OC` (stereo not shown) was 0.366%; that for `Cc1cccc(NC(=O)C(C)Oc2ccccc2F)c1` (stereo not shown) was 3.57%.
In the case of `Fc1ccc(N2CCN(C3CCC(c4ccccc4)CC3)CC2)cc1` (stereo not shown), the “% Inhibition @ 10 uM” value is on record as 6.52%.
The value for `O=C(Cc1ccccc1)Nc1ccc(-c2nc3ccccc3[nH]2)cc1` was 0.83%.
As for `COC(=O)C1=CN(C2CC2)C=C(C(=O)OC)C1c1cccc(OC)c1`, the “% Inhibition @ 10 uM” value was found to be 3.43%.
Turning to `Cc1ccc2c(c1)c1c(n2C)/C(=N/O)CCC1`, the “% Inhibition @ 10 uM” value is reported as -0.216%.
As for `Cc1cccc(NC(=O)c2ccc(C(=O)Nc3cccc(C)c3)nc2)c1`, the “% Inhibition @ 10 uM” value is given as -0.67%.
For the molecule `Cc1ccc(C)c(NC(=O)CN(c2ccc(C(C)C)cc2)S(C)(=O)=O)c1`, the “% Inhibition @ 10 uM” value came out at 3.72%.
For the molecule `NS(=O)(=O)c1ccc(NC(=O)c2ccccc2F)cc1`, the “% Inhibition @ 10 uM” value is recorded as 4.57%.
With `CN1C(=O)C(=Cc2ccco2)C(=O)N(C)C1=O`, the “% Inhibition @ 10 uM” value is 1.7%.
With `O=C(O)c1ccc(S(=O)(=O)NCc2cccnc2)cc1`, the “% Inhibition @ 10 uM” value is on record as 15.8%.
For the molecule `COc1ccc(-c2csc3ncn(Cc4c(F)cccc4Cl)c(=O)c23)cc1`, the “% Inhibition @ 10 uM” value is reported as -4.5%.
Then `COc1ccc(-c2cnn3c(C)cc(C)nc23)cc1OC`, with -1.72%; and `COc1ccc(C2=C/C(=C/c3ccco3)C(=O)O2)cc1`, with -5.62%.
`O=C(O)CCC(=O)Nc1nc(-c2ccccc2)cs1`: the “% Inhibition @ 10 uM” value was -5.7%.
